# Source: the supplement of paper PMC4166925
# ± gives the standard deviation of the averaged measurements. Whole data set: some 33,000 sequences, median “E-score (dimensionless, -0.5 to 0.5)” near -0.046, cut for the highest 2% near 0.36. The list shows a part of the results.
# Tested on: T1, SpTbr T-box DNA-binding domain (GST fusion)
# T1 sequence: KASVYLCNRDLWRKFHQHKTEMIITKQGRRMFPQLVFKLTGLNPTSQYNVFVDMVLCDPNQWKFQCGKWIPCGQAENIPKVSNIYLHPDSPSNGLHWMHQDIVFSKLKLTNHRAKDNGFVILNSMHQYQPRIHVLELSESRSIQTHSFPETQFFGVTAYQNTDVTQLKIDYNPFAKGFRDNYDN
# Experiment: PBM E-score of 8-mer (E-score (dimensionless, -0.5 to 0.5)); Tbr is Tbrain of the sea star Patiria miniata (Pm) or the sea urchin Strongylocentrotus purpuratus (Sp); higher = stronger binding preference; most listed sequences are background and not binding sites
# Conditions: the construct has about 5 more residues each side
# How it was run: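 Using the Universal PBM Analysis Suite, every ungapped 8-mer received an enrichment E-score averaged over duplicate arrays. Probe intensities came from double-stranded Universal Agilent oligonucleotide arrays incubated with 200 nM GST-fused Tbr T-box DNA-binding domain in PBS (pH 7.5). That protein was expressed in BL21 E. coli at 20 °C and purified by glutathione affinity chromatography.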
row,Sequence,PBM E-score of 8-mer
1,GACAAGGC,0.0902 ± 0.017
2,AATAACTG,0.0825 ± 0.042
3,GCTCGAGC,-0.222 ± 0.013
4,AAGGTAAA,0.0683 ± 0.019
5,ACCATTAT,-0.247 ± 0.079
6,CGCGTCGC,0.192 ± 0.028
7,TGACATAA,0.111 ± 0.022
8,AACAATCT,0.0664 ± 0.044
9,TATTAACA,0.174 ± 0.052
10,AGAAGTGG,0.141 ± 0.0081
11,CACGATGG,-0.0559 ± 0.009
12,AATGCGAG,0.076 ± 0.053
13,GCACCTAA,0.339 ± 0.04
14,AGTCGGTG,-0.0564 ± 0.0046
15,ACGCGAAT,0.108 ± 0.0028
16,GGACTAGA,-0.12 ± 0.044
17,ACATGTAT,0.0162 ± 0.03
18,CGCAAGCA,0.0501 ± 0.095
19,CGCCCTCA,0.164 ± 0.057
20,AGATGACC,-0.114 ± 0.059
21,ATGAAGGC,-0.0596 ± 0.051
22,CTTAACCA,-0.139 ± 0.0031

row,Sequence,PBM E-score of 8-mer
1,TAAACGAA,-0.2 ± 0.12
2,ACCGCAGG,-0.012 ± 0.0022
3,AACTTCTT,-0.0093 ± 0.033
4,CATGTGAC,0.233 ± 0.023
5,AACATAGA,-0.26 ± 0.026
6,GGACCCGA,0.149 ± 0.04
7,GTGACAAA,0.38303 ± 5.7e-05
8,TAAATACA,-0.0351 ± 0.039
9,TCGTGAAA,0.253 ± 0.054
10,AACTCTCG,-0.0772 ± 0.075
11,TGTGCTAA,0.26 ± 0.011
12,GGACTTTA,-0.144 ± 0.067
13,AACCTTAG,-0.144 ± 0.086
14,CCCCGCCA,0.0876 ± 0.024
15,AGTATGCG,-0.1685 ± 0.00056
16,CAGTTATG,0.0272 ± 0.003
17,AGGCGTCG,0.349 ± 0.018
18,GCACCCGA,0.0696 ± 0.039
19,AACGTGCT,0.139 ± 0.036
20,AAATAATA,-0.023 ± 0.067
21,AGACTTAT,0.00662 ± 0.019
22,ACCAACGG,0.156 ± 0.012

row,Sequence,PBM E-score of 8-mer
1,AGCGGTTG,0.0435 ± 0.043
2,CGGCAGAC,-0.231 ± 0.0041
3,AGCAGGGG,-0.0981 ± 0.058
4,ATGGTGCC,0.153 ± 0.028
5,CTGTGCTC,-0.171 ± 0.044
6,GAACTCAA,-0.253 ± 0.097
7,GAAAGGGA,-0.158 ± 0.0061
8,GCACTAAC,0.213 ± 0.0027
9,AGCGGCTG,-0.131 ± 0.013
10,AATTTTGT,-0.166 ± 0.052
11,AGCACGAC,-0.0218 ± 0.05
12,AATTCAGC,-0.016 ± 0.024
13,ATCCTGGC,-0.188 ± 0.028
14,CACAGTCC,0.0591 ± 0.024
15,AATCGGAC,-0.106 ± 0.072
16,CCACTGTA,-0.0467 ± 0.067
17,ACTGAGCG,0.075 ± 0.019
18,GGCGTGAA,0.473 ± 0.0057
19,CAGCGGCA,0.0649 ± 0.1
20,AAGTCCAC,-0.116 ± 0.022
21,GCGTATCA,-0.14 ± 0.015
22,ACCAGTGA,-0.0495 ± 0.041

row,Sequence,PBM E-score of 8-mer
1,GAATTGAA,-0.177 ± 0.099
2,CTAGCCTC,-0.0149 ± 0.0017
3,CGACTTGA,0.0579 ± 0.084
4,TGACAGCA,0.2699 ± 0.0022
5,CACACTAG,0.247 ± 0.0041
6,ACGACGTG,0.2421 ± 0.00038
7,GGCTACAA,-0.103 ± 0.017
8,ACGAATGA,0.00087 ± 0.061
9,GTTCAAGA,-0.275 ± 0.12
10,GCCTACCC,-0.0433 ± 0.057
11,ATCGGAAA,0.0519 ± 0.1
12,GCCCTACC,-0.231 ± 0.018
13,CCGCCGTC,-0.0628 ± 0.016
14,ATGGAGCA,-0.216 ± 0.049
15,AACTCCTC,-0.0179 ± 0.041
16,GCGGCATA,-0.122 ± 0.076
17,TACTTACA,0.0313 ± 0.082
18,TAATGAAA,-0.0329 ± 0.0047
19,CAGGCGAG,0.17 ± 0.0097
20,AGGACATC,0.0209 ± 0.091
21,ATGGTGGG,-0.148 ± 0.029
22,CGCGCAGA,0.15 ± 0.0021

row,Sequence,PBM E-score of 8-mer
1,ACGGGCAG,-0.111 ± 0.021
2,CCACAGTA,-0.201 ± 0.011
3,ATTTGTTA,0.125 ± 0.085
4,GAGATTAA,-0.0489 ± 0.075
5,AGAGGCTC,-0.16 ± 0.016
6,CATTAATG,-0.184 ± 0.053
7,GGGACTAC,-0.192 ± 0.044
8,AATATGCC,-0.199 ± 0.0042
9,CTTGGTAC,0.00058 ± 0.061
10,CTTTTCAC,0.327 ± 0.037
11,CTGATTAA,-0.198 ± 0.041
12,CGAGCGGA,-0.233 ± 0.013
13,CAGTAATA,-0.0141 ± 0.0066
14,CAATGCAC,0.0557 ± 0.0021
15,CATAGATG,0.0278 ± 0.017
16,GGAGAGCA,-0.0861 ± 0.087
17,GAGGGCGC,0.147 ± 0.036
18,GACGCAGA,-0.038 ± 0.072
19,GAGTTAAA,-0.0697 ± 0.042
20,GGAAGGAC,-0.281 ± 0.062
21,CCTGGGTC,-0.253 ± 0.044
